Paper PMC6919601, “Identification of Plasmodium dipeptidyl aminopeptidase allosteric inhibitors by high throughput screening” (PLoS ONE, 2019)
Out of some 110,000 compounds screened, about 230 (0.21%) showed an effect of 50% or more. The list shows a part of the results.

Molecular target: DPAP1 (Plasmodium falciparum, UniProt Q8IIJ9)
Assay: primary screen, percent inhibition; read by cleavage of a fluorogenic dipeptide substrate; higher = more effect of the substance
Design: species or system P. falciparum D10 trophozoite lysates; single well
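Further: 30 min substrate incubation versus DMSO and 10 µM JCP410 controls.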

DPAP1, sequence (Q8IIJ9 whole entry, looked up): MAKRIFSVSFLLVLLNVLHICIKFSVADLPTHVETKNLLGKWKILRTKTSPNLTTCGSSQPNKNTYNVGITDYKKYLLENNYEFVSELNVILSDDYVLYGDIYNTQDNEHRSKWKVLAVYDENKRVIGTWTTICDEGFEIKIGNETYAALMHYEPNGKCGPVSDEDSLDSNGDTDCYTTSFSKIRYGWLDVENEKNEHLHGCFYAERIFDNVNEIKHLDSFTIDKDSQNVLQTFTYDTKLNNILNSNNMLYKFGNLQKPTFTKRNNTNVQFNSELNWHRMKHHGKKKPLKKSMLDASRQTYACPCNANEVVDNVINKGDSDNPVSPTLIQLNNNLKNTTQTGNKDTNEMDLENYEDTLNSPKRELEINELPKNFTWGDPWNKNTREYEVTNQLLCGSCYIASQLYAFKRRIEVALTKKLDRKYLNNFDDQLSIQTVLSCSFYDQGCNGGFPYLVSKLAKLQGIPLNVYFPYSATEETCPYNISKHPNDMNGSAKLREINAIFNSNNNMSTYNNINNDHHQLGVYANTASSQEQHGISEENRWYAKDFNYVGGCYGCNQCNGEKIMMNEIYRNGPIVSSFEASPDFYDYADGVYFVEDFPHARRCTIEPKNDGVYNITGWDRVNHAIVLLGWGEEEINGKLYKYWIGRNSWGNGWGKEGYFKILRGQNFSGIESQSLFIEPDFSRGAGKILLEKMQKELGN

| SMILES | % Inhibition @ 10 uM [%] |
| --- | --- |
| CCOc1ccc(/C=C/C(O)=C2\C(=O)Oc3ccccc3C2=O)cc1 | -6.91 |
| CCN1C(=O)N/C(=C/c2ccc(OC(C)C)c(OC)c2)C1=O | 2.48 |
| COc1ccccc1CNC(=O)Cn1c2ccccc2c2cnnc(O)c21 | -2 |
| CC(C)CCOc1ccc2c(-c3ccccc3)cc(=O)oc2c1 | 1.04 |
| O=C(O)C1C2CCC(C2)C1C(=O)Nc1ccc2c(c1)OCO2 (centres unmarked) | -1.32 |
| O=C(Nc1ccc2c(c1)oc1ccccc12)c1ccncc1 | 0.0345 |
| Cc1sc(NC(=O)c2ccco2)c(C(c2cccnc2)N2CCN(CCO)CC2)c1C (centres unmarked) | 1.96 |
| O=C(c1cccs1)N1CCN(C23CC4CC(CC(C4)C2)C3)CC1 | -5.48 |
| N=C1/C(=C/c2ccc(-c3ccccc3)o2)C(=O)N=C2SC=C(c3ccccc3)N12 | -1.93 |
| Cc1csc(NC(=O)c2cccn(OCc3ccccc3)c2=O)n1 | -3.44 |
| CCn1c2ccccc2c2cc(CNc3ccc4c(c3)CCC4)ccc21 | 5.01 |
| CCN(CC)CCN(C)Cc1ccccc1Cl | -1.56 |
| CCCC(=O)N(c1ccccc1)C1CC(C)Nc2ccccc21 (centres unmarked) | 1.41 |
| CCCOC(=O)C1=C(C)NC(=O)NC1c1ccccc1 (centres unmarked) | -2.35 |
| COc1ccc(Br)cc1CN1CCN(C(=O)c2ccccc2)CC1 | -12.3 |
| Cc1cc(Cl)ccc1N(CC(=O)N1CCCCC1)S(C)(=O)=O | -5.85 |
| CC(C)Cc1n[nH]c(SCC(=O)Nc2nnc(CC(C)C)s2)n1 | 3.16 |
| Cc1ccc2c(c1)[C@H]1OCC[C@H]1[C@@H](c1ccncc1)N2 | -0.872 |
| O=C(Nc1cc(C(F)(F)F)ccc1F)C12CC3CC(C1)CC(n1cncn1)(C3)C2 | -3.37 |
| CCC(CC)COC(=O)C1=C(C)NC(=O)NC1c1cccc(F)c1 (centres unmarked) | 0.878 |
| Cc1cccn2c(=O)c3cc(C(=O)N4CCC(Cc5ccccc5)CC4)n(C)c3nc12 | -0.659 |

| SMILES | % Inhibition @ 10 uM [%] |
| --- | --- |
| O=C(CCn1ccc2cc(S(=O)(=O)N3CCCC3)ccc21)NCCC1=CCCCC1 | -2.12 |
| Cc1cc(C)cc(OCC(=O)Nc2nc(-c3ccc(S(=O)(=O)N4CCOCC4)cc3)cs2)c1 | 5.99 |
| COc1ccc(/C=C2/NC(=O)N(Cc3ccccc3F)C2=O)cc1O | 2.92 |
| CC(=O)Nc1ccc(S(=O)(=O)Nc2c(C)nn(Cc3ccc(Cl)c(Cl)c3)c2C)cc1 | 9.65 |
| COc1ccc(OCC(=O)N2CCN(C(=O)c3ccco3)CC2)cc1 | 1.91 |
| Cc1ccc(S(=O)(=O)NC(C(=O)O)C(C)O)cc1 (centres unmarked) | 5.54 |
| CN(C)S(=O)(=O)c1ccc(C(=O)Nc2cc(C(F)(F)F)cc(C(F)(F)F)c2)cc1 | -0.795 |
| CCc1nnc(NC(=O)C2=C(C)C(=O)OC23CCCCCC3)s1 | 3.24 |
| C1CC2CN(C3C4CC5CC(C4)CC3C5)CCN2C1 (centres unmarked) | -1.15 |
| COC(=O)/C(=C/c1ccc2c(c1)OCO2)NC(=O)c1ccc(C(C)(C)C)cc1 | -1.81 |
| CCOC(=O)N1CCN(C(=O)CCCN2C(=O)CSc3nc(C)cc(C)c32)CC1 | -0.637 |
| COc1cc(/C=C\C(=O)Nc2c3c(nn2-c2ccc(C)cc2C)CS(=O)(=O)C3)cc(OC)c1OC | 2.92 |
| CC1(C)N=C(c2ccccc2)C(=S)N1 | 7.35 |
| COc1ccccc1C1CC(c2ccc(Br)cc2)=NN1C(=O)CCC(=O)O (centres unmarked) | 17 |
| Cc1ccc(C)c(NC(=O)c2cnoc2C)c1 | -3.45 |
| CCOC(=O)c1cnc2c(OC)cc3c(c(C)c(C)n3C)c2c1O | 0.9 |
| CCNC(=O)/C(C#N)=C/c1c(Oc2ccc(OC)cc2)nc2c(C)cccn2c1=O | -3.23 |
| CC(C)=CCCC(C)CN(CCN(C)C)Cc1ccccc1 (centres unmarked) | -4.95 |
| CCOC(=O)c1c(NC(=O)/C=C/C(=O)O)sc2c1CCC(C(C)(C)C)C2 (centres unmarked) | 0.222 |
| COc1ccc(C(=O)Oc2c(Cc3ccccc3)c(=O)oc3ccccc23)cc1 | 0.685 |
| CC(C)CCN(Cc1ccco1)C(=O)Nc1cn(C)c(=O)c2ccccc12 | 7.64 |

| SMILES | % Inhibition @ 10 uM [%] |
| --- | --- |
| CCCNC(=O)C1CCCN(c2nnc(C)c3c(C)n(-c4ccc(OC)cc4)nc23)C1 (centres unmarked) | 8.15 |
| O=C(Cn1cnc2ccccc21)c1ccc(Br)cc1 | -1.07 |
| CC1(C)CC(=O)C2=C(C1)c1c(ccc3ccccc13)NC2c1cccc(F)c1 (centres unmarked) | -0.436 |
| COc1ccc(C2C(C(=O)Nc3ccc(Cl)cc3)=C(C)Nc3ncnn32)c(OC)c1 (centres unmarked) | 6.63 |
| CC1(C)CC(NC(=O)NC2CCCCC2)CC(C)(C)N1 | 1.35 |
| O=C(NCCCn1ccnc1)c1cc2nc(-c3cccs3)cc(C(F)(F)F)n2n1 | 1.58 |
| CCc1cc2c3c(c1)C(C)=CC(C)(C)N3C(=O)C2=O | -3.72 |
| COc1ccc2c(c1)c(C(C)=O)c(C)n2-c1ccccc1C | 0.132 |
| O=C(CCn1c(=O)c2cccn2c2cccnc21)N1CCOCC1 | 2.6 |
| CC1CCN(C(=O)Cn2ncc3c4ccccc4n(Cc4cccc(Cl)c4)c3c2=O)CC1 | -3.35 |
| CCCOc1ccc(CSc2nncn2N)cc1 | 0.484 |
| CN1C(=O)C2Cc3c([nH]c4ccccc34)C(c3cccc(O)c3)N2C1=S (centres unmarked) | -3.62 |
| Cc1ccc2nc3c(cc(C(=O)NCC4CCCO4)c(=N)n3Cc3cccnc3)c(=O)n2c1 (centres unmarked) | 1.76 |
| O=C1NC(=O)N(CCc2ccc(F)cc2)C(=O)/C1=C/c1cccc2ccccc12 | 0.503 |
| Cc1c(Cl)cccc1-n1nc(C)c2c(C)cc(=O)n(CC(=O)O)c21 | 0.124 |
| CCCCN(C)C(=O)C1CCN(C(=O)c2cnn(-c3ccccc3)c2-n2cccc2)CC1 | 3.4 |
| CC(C)c1ccc(OCC(=O)Nc2ccc(S(=O)(=O)N3CCOCC3)cc2)cc1 | -7.09 |
| Cc1ccc(Cl)cc1NC(=O)c1cccnc1 | 6.1 |
| O=C(O)c1c(CNCCc2c[nH]c3ccccc23)c2ccccc2n1Cc1ccccc1F | 3.54 |
| O=S(=O)(c1ccc(-c2ccc(O)nn2)s1)N1CCCN(Cc2ccc(F)cc2)C1 | 2.09 |
